T1: human B7-1 Fc fusion protein (human, UniProt P33681 35-242)
T1 construct: also called B7-1 Ig; B7-1 Ig fusion protein; not shown: Fc portion, not described
T1 sequence (looked up): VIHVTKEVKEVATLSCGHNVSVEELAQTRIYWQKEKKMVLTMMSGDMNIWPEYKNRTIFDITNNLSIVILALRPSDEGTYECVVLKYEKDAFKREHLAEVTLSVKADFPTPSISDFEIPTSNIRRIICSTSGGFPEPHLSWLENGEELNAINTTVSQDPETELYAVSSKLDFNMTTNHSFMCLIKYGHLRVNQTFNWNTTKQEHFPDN


How the values were obtained:
[1] = target: T1, human B7-1 Fc fusion protein; assay: ELISA, plate-coated CTLA-4Fc mutant, biotinylated B7-1 Ig
[2] = target: T1, human B7-1 Fc fusion protein; assay: ELISA, plate-coated WT CTLA-4Fc, biotinylated protein

| binding result [1] | binding result [2] | Binder |
| --- | --- | --- |
| no binding (tested: 1 ug/ml) |  | CTLA-4Fc mutant M9 (Fc fusion, also called Mutant 9) AMHVAQPAVVLASSRGIASFVCEYASPGKATEVRVTVLRQADSQVTEVCAATYMMGNELTFLDDSICTGTSSGNQVNLTIQGLRAMVDTGLYICKVELMYPPPYYLGIGNGTQIYVIDPEPCPDSDQ[left out - human IgG1 Fc with changes] |
| no binding (tested: 1 ug/ml) |  | CTLA-4Fc mutant M10 (Fc fusion, also called Mutant 10) AMHVAQPAVVLASSRGIASFVCEYASPGKATEVRVTVLRQADSQVTEVCAATYMMGNELTFLDDSICTGTSSGNQVNLTIQGLRAMMDTGLYLCKVELMYPPPYYLGIGNGTQIYVIDPEPCPDSDQ[left out - human IgG1 Fc with changes] |
|  | binds | WT human CTLA-4Fc protein (Fc fusion, Produced in HEK293, Protein A purified; also called CTLA-4Fc WT control; hCTLA4-Fc) not shown |
